Laboratory results published in patent publication US9884084B2, “Bone loss preventing and bone regeneration or bone formation promoting pharmaceutical composition comprising muramyl dipeptide” (SNU R&DB FOUNDATION, priority 2012, dated 2018).

Tested on: bone marrow macrophages (BMMs)
Assay: Osteoclast differentiation from bone marrow macrophages, TRAP staining
Details: 20 ng/ml M-CSF and 20 ng/ml RANKL, 3 days; FIG. 7
Experimental: Bone marrow cells (BMs) were isolated from the long bones of mouse and were cultured in α-MEM supplemented with 10% FBS, 100 U/ml penicillin and 100 μg/ml streptomycin, and 2 ng/ml M-CSF for 1 day. Suspended cells were differentiated into BMMs with 20 ng/ml M-CSF for 3 days. The BMMs were incubated with 20 ng/ml M-CSF and 20 ng/ml RANKL in the presence or absence of MDP for additional 3 days. To make RANKL-primed osteoclast precursors, the BMMs were stimulated with 20 ng/ml mouse RANKL for 48 h. The BMMs were incubated with 20 ng/ml M-CSF in the presence or absence of MDP for additional 3 days.
The differentiation was determined by tartrate resistant acid phosphatase (TRAP) staining using Leukocyte acid phosphate-staining kit (Sigma-Aldrich Chemical, USA) according to the manufacturer's instruction. After the staining, TRAP-positive multinucleated cells with at least 3 nuclei were enumerated as mature osteoclasts with an inverted phase-contrast microscope and results are shown in FIG. 7.

N-acetylmuramyl-L-Alanyl-D-Isoglutamine [MDP]
differentiation into osteoclast from bone marrow macrophages (TRAP-positive multinucleated cells): did not affect
